PubChem BioAssay (NCI)
Values joined by “and” are separate entries in the source; they are usually repeats but may differ in a detail not shown here. Equal values may be shown once.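 These data come from cells grown in 96-well plates and exposed to compound for 48 hours at five concentrations. Here, GI50 denotes the concentration required for 50% inhibition of growth. TGI: concentration producing complete growth inhibition.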

tested on: NCI-H322M lung; assay: NCI anticancer screen, dose series, 48 h

Question: With `N#Cc1c(N)c2c(c(-c3ccccc3)c1-c1ccccc1)C(=O)N(NC(=S)Nc1ccccc1)C2=O` as the compound, how does the TGI read?
Answer: > 100 µM

Question: How did the TGI turn out when `COc1c(Cl)nc2ccccc2c1N=[N+]=[N-]` was run?
Answer: > 100 µM

Question: Which results are given for `CS(=O)(=O)OCCn1c2c(c3c(O)cccc31)C(=O)c1ccccc1-2`?
Answer: GI50: > 100 µM; TGI: > 100 µM

Question: `COC(=O)CC(=O)OC` was tested. Which TGI did it give?
Answer: > 100 µM

Question: What does the source list for `c1ccc(-c2cccc(-c3ccccn3)n2)nc1`?
Answer: GI50: 0.0668 µM; TGI: 1.98 µM and 8.73 µM

Question: Which GI50 does the source give for `CC(C)CNC(=O)c1ccc(NC(=O)N(CC(C)C)C(=O)c2ccc(N)c(OCCCN)c2)c(OCCCN=C(N)N)c1` here?
Answer: > 62.5 µM

Question: What about the TGI of the same compound?
Answer: > 62.5 µM

Question: How did the TGI turn out when `COc1ccc(N2C(=O)C3c4[nH]c5c(C)cccc5c4C4CCC(c5ccccc5)CC4C3C2=O)cc1` (stereo unspecified) was run?
Answer: 89.7 µM

Question: `CN1C(=O)C23CC4(C56CC78SSC(CO)(C(=O)N7C5Nc5ccccc56)N(C)C8=O)c5ccccc5NC4N2C(=O)C1(CO)SS3` (stereo unspecified) was tested. Which GI50 did it give?
Answer: 0.136 µM

Question: And the TGI?
Answer: 0.43 µM

Question: `COc1cccc(-n2ncc3c(N/N=C/c4cccc(F)c4)ncnc32)c1` was tested. Which GI50 did it give?
Answer: 15 µM

Question: And the TGI?
Answer: > 25 µM

Question: Which TGI does the source give for `NC(=O)c1ccc(NCC2=CC(=O)C=CC2=O)cc1` here?
Answer: > 100 µM

Question: How did the TGI turn out when `CS(=O)(=O)c1ccc(NNc2cc(=O)[nH]c(=O)[nH]2)cc1` was run?
Answer: > 100 µM

Question: For `O=C(/C=C/c1ccccc1O)c1cccs1`, which TGI is on record?
Answer: > 100 µM

Question: For `NC(=O)c1cc(Cl)ccc1NC(=O)COc1ccccc1`, which GI50 is on record?
Answer: 7.09 µM

Question: What about the TGI of the same compound?
Answer: > 100 µM

Question: With `CC/C=C/c1cc2c(c3[nH]ccc13)[C@@H](C)CC2C` (stereo partly specified) (tested in a mixture with another compound) as the compound, how does the TGI read?
Answer: 32.2 µM

Question: `O=C1C(=C2SC(c3ccccc3)(c3ccccc3)c3ccccc32)C(=O)c2ccccc21` was tested. Which TGI did it give?
Answer: > 100 µM

Question: Which TGI does the source give for `C#CCN(Cc1ccc2nc(-c3ccccc3)c(Cl)nc2c1)c1cc(OC)c(OC)c(OC)c1` here?
Answer: > 100 µM

Question: How did the GI50 turn out when `O=c1c2[nH]ccc2nc2n1CCS2` was run?
Answer: > 100 µM

Question: And the TGI?
Answer: > 100 µM

Question: For `COc1nc2ncc([C@@H](O)[C@H](O)CO)nc2c(=O)n1C`, which TGI is on record?
Answer: > 100 µM

Question: How did the TGI turn out when `NCC(O)CSP(=O)(O)O` (stereo unspecified) was run?
Answer: > 100 µM

Question: For `COc1ccc(-c2cn(-c3cccc(C(=O)/C=C/c4cc(OC)c(OC)c(OC)c4)c3)c(=O)[nH]2)cc1`, which GI50 is on record?
Answer: 2.66 µM

Question: What about the TGI of the same compound?
Answer: 13.6 µM

Question: How did the TGI turn out when `C/C(=C1/N=C(c2cc([N+](=O)[O-])ccc2Cl)N(c2ccc(Br)cc2)C1=O)c1cc2ccccc2oc1=O` was run?
Answer: > 100 µM

Question: How did the GI50 turn out when `Nc1cc2ccccc2c(O)c1O` was run?
Answer: 15.7 µM

Question: What about the TGI of the same compound?
Answer: 30.1 µM

Question: Which TGI does the source give for `COC1OC(COC(=O)NCCCCC(=O)C(F)(F)C(F)(F)C(F)(F)C(F)(F)C(F)(F)C(F)(F)C(F)(F)F)C(O)C(O)C1O` (stereo unspecified) here?
Answer: 33 µM and 24.6 µM

Question: How did the TGI turn out when `CCOC(=O)c1c(SCCCN2CCCCC2)n(-c2ccccc2)c(=S)n(-c2ccccc2)c1=O` was run?
Answer: 33.4 µM

Question: Which TGI does the source give for `COC1OC(Cn2c(C)nc(Br)c2Br)C(O)C(O)C1O` (stereo unspecified) here?
Answer: > 100 µM

Question: How did the TGI turn out when `O=C1CCC[C@]2(CCCC(=O)N2)C1` was run?
Answer: > 100 µM

Question: `COc1ccc(OC)c(CCc2cc(OC)ccc2OC)c1` was tested. Which TGI did it give?
Answer: > 10 µM

Question: Which TGI does the source give for `CC1(C)C2CCC(=O)C1C(OCc1ccccc1)C2` (stereo unspecified) here?
Answer: > 100 µM

Question: Which GI50 does the source give for `Cc1oc2nc[nH]c(=O)c2c1C(=O)/C=C/c1ccc(Br)cc1` here?
Answer: 2.39 µM

Question: What about the TGI of the same compound?
Answer: 12 µM

Question: Which results are given for `CN1CCN(Cc2ccc(NC(=O)c3cncc(C#Cc4cnc5ccc(Cl)nn45)c3)cc2C(F)(F)F)CC1`?
Answer: GI50: 1.27 µM; TGI: 3.23 µM

Question: Which TGI does the source give for `NC1CC(=O)c2ccccc21` (stereo unspecified) here?
Answer: > 100 µM

Question: For `O=C(Nc1ccc(-n2ccc3c(NC(=O)c4ccccc4)ncnc32)cc1)c1ccc(Cl)c(C(F)(F)F)c1`, which GI50 is on record?
Answer: 6.41 µM

Question: What about the TGI of the same compound?
Answer: 23.2 µM

Question: Which TGI does the source give for `Cc1ccccc1N1C(N)=C(C#N)C(C#N)(C#N)C1c1ccccc1` (stereo unspecified) here?
Answer: 36.6 µM

Question: For `CCC1(CN(C)C)CC/C(=C\c2ccc(OC)cc2)C1=O` (stereo unspecified), which TGI is on record?
Answer: > 100 µM

Question: Which GI50 does the source give for `COc1ccc2c(c1)C(=O)c1c-2c(=O)n(CCCCCCC(=O)NO)c2ccccc12` here?
Answer: 0.777 µM

Question: What about the TGI of the same compound?
Answer: 21.7 µM

Question: Which TGI does the source give for `N=C(N)CCNC(=O)C1CCC(N)=N1` (stereo unspecified) here?
Answer: > 95.4 µM

Question: How did the GI50 turn out when `c1ccc(-c2nc([P+](c3ccccc3)(c3ccccc3)c3ccccc3)c(N3CCOCC3)o2)cc1` was run?
Answer: 3.18 µM

Question: What about the TGI of the same compound?
Answer: 15.9 µM

Question: For `O=C(c1cccs1)c1c(C(F)(F)F)n([O-])c2ccc(Cl)cc2[n+]1=O`, which GI50 is on record?
Answer: 4.94 µM

Question: What about the TGI of the same compound?
Answer: 11.5 µM

Question: For `COC(=O)C1(C(=O)OC)N=C(C)OC1c1ccoc1` (stereo unspecified), which TGI is on record?
Answer: > 100 µM

Question: Which TGI does the source give for `COc1nc(=O)n(C2CC(F)C(CO)O2)cc1C` (stereo unspecified) here?
Answer: > 100 µM

Question: Which TGI does the source give for `O=c1oc2ccccc2c(O)c1/C=N\c1nc(-c2ccc(O)c(O)c2)cs1` here?
Answer: 26.7 µM

Question: For `[O-][n+]1c2cc(CBr)c(CBr)cc2[n+]([O-])c2c(O)cccc21`, which TGI is on record?
Answer: 24.2 µM

Question: For `COc1ccc(N2CCOCC2)cc1`, which TGI is on record?
Answer: > 100 µM

Question: `Nc1nnnn1NC(=O)NCCCl` was tested. Which TGI did it give?
Answer: > 10 µM

Question: Which GI50 does the source give for `C/C(=N\NC(=O)c1ccccc1N)c1ccccc1O` here?
Answer: 2.35 µM

Question: What about the TGI of the same compound?
Answer: > 100 µM
